Experimental data reported in PubChem BioAssay AID463173 (ICCB-Longwood Screening Facility, Harvard Medical School, 2010).
The campaign covered roughly 52,000 compounds. About 1,700 (3.3%) were called active. Rule as the data show it: active = survival mostly below about 52% (no sharp cut-off); inactive = mostly above about 56%. This is one part of the list.

Tested on: Wild type
Assay: growth inhibition of S. aureus wild type versus tarO mutant, primary screen, teichoic acid synthesis inhibitors, RN4220, OD600 (AID 463173)
Conditions: S. aureus RN4220 wild type/DeltatarO growth, OD600, 18 h, hits give low values, screened at 18.75 µg/mL (by protocol)

| Compound | survival |
| --- | --- |
| COc1ccccc1NC(=O)c1c(-c2ccc(C)cc2)nnc2ccccc12 | inactive: 119% |
| Cc1ccc(C(=O)N(Cc2ccc(N(C)C)cc2)CC2CCCO2)cc1 (centres undefined) | inactive: 83% |
| Cc1nn(C(C)C(=O)NCc2ccc(OC(C)C)cc2)c(=O)c2c1sc1ccccc12 (centres undefined) | inactive: 105% |
| COc1ccc(N2CCN(C(=O)Nc3cn(CC(C)C)c(=O)c4ccccc34)CC2)cc1 | inactive: 92% |
| O=C(NCc1cccs1)c1ccc2c(c1)sc1nc(-c3ccc(F)cc3)cn12 | inactive: 90% |
| O=C(Nc1cc(Cl)ccc1Cl)c1ccc2c(c1)N(Cc1cccc(Cl)c1)C(=O)c1ccccc1S2=O (centres undefined) | inactive: 128% |
| Cc1c(Cl)cccc1NC(=O)c1cc(-c2ccc3c(c2)OCO3)on1 | inactive: 85% |
| COc1c(Cl)cc(C(=O)Nc2cc(-c3nc4ccccc4[nH]3)ccc2C)cc1Cl | inactive: 84% |
| Cc1nn(-c2ccccc2)c(OC(=O)c2ccccc2)c1S(=O)(=O)c1ccccc1 | inactive: 55% |
| COc1ccc(-c2csc(C(C#N)=C3CCCC3)n2)cc1 | inactive: 108% |
| Cc1ccc2oc(C(=O)Nc3c(C(=O)Nc4cccc(Cl)c4)oc4ccccc34)cc(=O)c2c1 | inactive: 91% |
| Cc1ccccc1Cn1ccn(-c2ccc(F)c(F)c2)c(=O)c1=O | inactive: 86% |
| O=C(Nc1ccccc1C(F)(F)F)N1CCOc2ccc(Cl)cc21 | inactive: 84% |
| Cc1ccc(N2C(=O)CS(=O)(=O)C23C(=O)Nc2ccccc23)cc1C (centres undefined) | inactive: 71% |
| CCOC(=O)CSc1nc2ccccc2c(=O)n1-c1ccc(C(=O)NCCOC)cc1 | inactive: 80% |
| Nc1nc(SCc2cccc3ccccc23)n[nH]1 | inactive: 98% |
| CCOc1ccccc1-c1noc(CSc2nnc(-c3ccccc3)n2-c2ccc(OC)cc2)n1 | inactive: 75% |
| CCOC(=O)N1CCC(NC(=O)c2ccc3c(c2)N(Cc2ccccc2C)C(=O)c2ccccc2S3=O)CC1 (centres undefined) | inactive: 80% |
| CC(C)c1ccc(C2CC(=O)Nc3cc4c(cc32)OCCO4)cc1 (centres undefined) | inactive: 71% |
| CN(Cc1nc(-c2ccc(Cl)cc2)no1)S(=O)(=O)c1ccccc1 | inactive: 82% |
| CCc1ccc(NC(=O)Cn2nnc(-c3ccccc3N)n2)cc1 | inactive: 103% |
| COc1ccc(S(=O)(=O)N(CC(=O)NC(C)c2ccccc2)c2ccc(C)cc2)cc1OC (centres undefined) | inactive: 86% |
| COc1ccc(N2CCN(CCCNC(=O)c3c(C)nn(-c4ccc(F)cc4)c3-n3cccc3)CC2)cc1 | inactive: 78% |

| Compound | survival |
| --- | --- |
| O=C(CCC(=O)NC1CCN(Cc2ccccc2)CC1)NCc1ccco1 | inactive: 96% |
| CCOC(=O)N1CCc2c(sc3c2c(=O)n(-c2ccc(CC)cc2)c(=O)n3Cc2ccc(F)cc2Cl)C1 | inactive: 94% |
| COc1ccccc1N1CCN(C(=O)c2cc3c(=O)n(Cc4cccs4)ccc3nc2C)CC1 | inactive: 88% |
| Cc1ccc(-n2ncc3c(NCCCn4ccnc4)ncnc32)cc1C | inactive: 66% |
| CCOC(=O)c1c(NC(=O)Cc2coc3ccc(CC)cc23)sc2c1CCC2 | inactive: 81% |
| CCOc1ccc2nc(N3CCCC(C(=O)NCCc4ccc(Cl)cc4)C3)sc2c1 (centres undefined) | inactive: 71% |
| CCOc1ccc(NC(=O)Cn2nc(Cc3cccnc3)c3ccccc3c2=O)cc1 | inactive: 72% |
| COc1ccccc1NC(=O)N1CCN(c2ccc3nnc(-c4ccc(F)cc4)n3n2)CC1 | inactive: 75% |
| CC(C)C(=O)Nc1nnc(S(=O)(=O)N2CCc3ccccc32)s1 | inactive: 79% |
| Cc1cccc(N2CCN(c3ccc4cc(S(=O)(=O)N5CCC(C)CC5)ccc4n3)CC2)c1C | inactive: 87% |
| CC1(C)Oc2ccc(NC(=O)c3ccco3)cc2O1 | inactive: 106% |
| CCOC(=O)c1c(C)oc2ncnc(Nc3cccc(C(F)(F)F)c3)c12 | inactive: 88% |
| CCc1ccc(NC(=O)CC(NCc2cccnc2)C(=O)O)cc1 (centres undefined) | inactive: 74% |
| O=c1oc2ccccc2cc1-c1cn2cc(Cc3ccc(F)cc3)sc2n1 | inactive: 133% |
| Cc1ccc(OCC(=O)Nc2ccc(OCc3cc(=O)n4c(C)csc4n3)cc2)cc1C | inactive: 137% |
| Cc1ccc(Cn2ccnc2SCC(=O)NCc2ccccc2)cc1 | inactive: 72% |
| CCOc1ccccc1Nc1sc(C(=O)c2ccccc2)c(N)c1C(=O)Nc1ccc(F)cc1 | inactive: 80% |
| CCOC(=O)c1cccc(NC(=O)Cn2ncc3c(=O)oc4ccccc4c32)c1 | inactive: 84% |
| COc1ccc(CNC(=O)C(=O)NCC(c2ccco2)S(=O)(=O)c2ccc(Cl)cc2)cc1 (centres undefined) | inactive: 133% |
| Cn1c(=O)c2c(nc(SCC(=O)Nc3ccccc3F)n2Cc2ccccc2F)n(C)c1=O | inactive: 93% |
| CSc1ccc(CCNC(=O)Cn2nc(C)n3c(cc4sccc43)c2=O)cc1 | inactive: 92% |
| Cc1nc(-c2ccc(Cl)cc2)sc1CCNC(=O)C(=O)Nc1ccc2c(c1)OCO2 | inactive: 74% |
| Cc1ccc(NC(=O)c2ccc3c(c2)NC(=O)c2ccccc2S3)c(Cl)c1 | inactive: 97% |

| Compound | survival |
| --- | --- |
| Cc1nn(CC(=O)NC2CC2)c(=O)c2cc3cc(F)ccc3n12 | inactive: 82% |
| COc1cc(C2CC(=O)Nc3cc4c(cc32)OCO4)cc(OC)c1O (centres undefined) | inactive: 84% |
| Cc1c(C)n(Cc2ccc(Cl)cc2)c2ccc(C(=O)N3CCN(c4ccccc4F)CC3)cc12 | inactive: 81% |
| COc1cccc(NC(=O)Cn2c(=O)oc3cc(S(=O)(=O)N4CCCCC4)ccc32)c1 | inactive: 140% |
| Cc1ccc(C(=O)c2oc3ccccc3c2NC(=O)COc2ccc(Cl)c(C)c2)cc1 | inactive: 73% |
| COc1ccc(OC)c(CCNC(=O)c2nc(-c3ccc(Cl)cc3)n3c2CCCCC3)c1 | inactive: 83% |
| O=S(=O)(NC1CCCC1)c1cccc(S(=O)(=O)N2CCCCC2)c1 | inactive: 104% |
| CC(C)COc1ccc(C(=O)N2CCCCC2CCN2CCOCC2)cc1 (centres undefined) | inactive: 86% |
| CSc1nn(Cc2ccc(F)cc2)c(N(C(C)=O)C(C)=O)c1S(=O)(=O)c1ccccc1 | inactive: 59% |
| CCc1cccc(CC)c1NC(=O)CN(C)S(=O)(=O)c1ccc2c(c1)n(C)c(=O)c(=O)n2C | inactive: 81% |
| COc1cc2nc(C3CCC3)n(NC(=O)c3ccco3)c(=O)c2cc1OC | inactive: 88% |
| CCCCN(C(=O)c1cccs1)c1nnc(-c2cc(OC)cc(OC)c2)s1 | inactive: 116% |
| COc1cccc(CNC(=O)C2CCCN(c3nnc(-n4c(C)ccc4C)s3)C2)c1OC (centres undefined) | inactive: 85% |
| CC(=O)Nc1c(C(=O)c2ccc(F)cc2)oc2ccccc12 | inactive: 102% |
| Cc1ccc(C(=O)CSc2nc(C)cc(C)c2C(=O)Nc2cccc(C)c2)cc1 | inactive: 84% |
| Cc1ccc2nc(COc3ccccc3NC(=O)Nc3ccc(F)c(Cl)c3)cc(=O)n2c1 | inactive: 75% |
| Cc1cccc(NC(=O)CSc2cn(CC(=O)N3CCOCC3)c3ccccc23)c1C | inactive: 89% |
| CCSc1nc(-c2ccc(OC)cc2)nc2c1Cc1c(CO)cnc(C)c1O2 | inactive: 82% |
| Nc1ccc2nc(CO)[nH]c2c1 | inactive: 106% |
| CC(=O)N1CCCc2ccc(NC(=O)c3ccc(OC(C)C)cc3)cc21 | inactive: 86% |
| Cc1nc2c3ccccc3nc(NNC(=O)CCC(=O)N3CCN(c4ccc(F)cc4)CC3)n2n1 | inactive: 87% |
| O=C(Nc1ccc(OC(F)(F)F)cc1)c1cc(-c2ccc(Cl)cc2)on1 | inactive: 105% |
| Cc1occc1C(=O)NC(C)C12CC3CC(CC(C3)C1)C2 (centres undefined) | inactive: 101% |

| Compound | survival |
| --- | --- |
| Cc1ccc(-n2c3nc(=O)n(C)c(=O)c-3cc3ccccc32)c(C)c1 | inactive: 121% |
| CCC(=O)N1CCc2cc(Br)cc(S(=O)(=O)N3CCCC(C(=O)NCc4ccc(C)cc4)C3)c21 (centres undefined) | inactive: 97% |
| COc1ccc(/C=C/c2nc(C#N)c(N3CCCCC3)o2)cc1OC | inactive: 87% |
| COc1cccc2cc(-c3nc4sc5c(c4c(=O)[nH]3)CCC(C(C)(C)C)C5)c(=O)oc12 (centres undefined) | inactive: 95% |
| COc1ccc(S(=O)(=O)c2c(Nc3cccc(Cl)c3)sc(C(=O)c3ccccc3)c2N)cc1 | inactive: 91% |
| Cc1cc2c(cc1S(=O)(=O)NCc1ccc(F)cc1)OCCN2C | inactive: 80% |
| CCCCN(Cc1cc2cc(C)ccc2[nH]c1=O)C(=O)c1cccc(Cl)c1 | inactive: 93% |
| CCc1ccc(NC(=O)Cn2ncn3c(cc4ccccc43)c2=O)cc1 | inactive: 131% |
| Cc1ccc2c(=O)cc(C(=O)Nc3c(C)cccc3C)oc2c1 | inactive: 87% |
| CC1CCN(S(=O)(=O)c2ccc3c(ccn3CC(=O)NCc3ccccc3F)c2)CC1 | inactive: 53% |
| Cc1ccc(C)c(NC(=O)CN2CCN(C3CCCCC3)C(=O)C2=O)c1 | inactive: 78% |
| COc1cccc(CNC(=O)c2ccc3c(c2)nc2n3CCOC2)c1OC | inactive: 55% |
| CCn1cc(C(=O)NCCc2ccc(OC)c(OC)c2)c(=O)c2cc(S(=O)(=O)N3CCOCC3)ccc21 | inactive: 74% |
| Cc1ccc(C(=O)Nc2nnc(S(=O)(=O)N(C)Cc3ccco3)s2)cc1 | inactive: 51% |
| CCc1nc2c(cnn2-c2ccc(C)cc2)c(=O)n1-c1ccc(C)cc1 | active: 18% |
| O=C(Nc1cccc(C(F)(F)F)c1)c1cc(-c2ccc(Cl)cc2)on1 | inactive: 83% |
| Cc1ccc(-c2noc(C(C)NC(=O)c3ccco3)n2)cc1 (centres undefined) | inactive: 86% |
| COc1ccc(S(=O)(=O)c2c(SC)nn(CC(=O)Nc3ccc(C)c(Cl)c3)c2N)cc1 | inactive: 88% |
| COc1ccc2c(CNC3CCCC3)c(C(=O)O)n(Cc3ccccc3C)c2c1 | inactive: 92% |
| CCc1nn2c(=O)cc(COC(=O)c3cccc(NC(=O)c4ccccc4C)c3)nc2s1 | inactive: 91% |
